We go through 42 sequences from paper PMC7819943, “Rice protein-binding microarrays: a tool to detect cis-acting elements near promoter regions in rice”.

Some of the results follow.

This assay deals with T1, OsWOX13 (Oryza sativa, UniProt Q5QMM3 1-267).
T1 sequence: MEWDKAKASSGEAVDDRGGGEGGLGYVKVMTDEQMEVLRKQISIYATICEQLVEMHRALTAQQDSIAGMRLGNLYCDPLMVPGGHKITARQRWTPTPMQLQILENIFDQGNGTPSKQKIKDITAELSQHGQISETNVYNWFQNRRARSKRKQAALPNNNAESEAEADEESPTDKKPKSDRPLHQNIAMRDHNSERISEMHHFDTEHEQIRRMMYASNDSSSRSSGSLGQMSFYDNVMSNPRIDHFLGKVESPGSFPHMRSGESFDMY
The assay can be described thus: protein-binding microarray (RPBM); PBS, 2% BSA, 51.3 ng/ul salmon testes DNA, 50 uM zinc acetate, 200 nM TF, 25 C, 1 h; high values mean tight binding. The following applies: protein: recombinant; tags: N-terminal polyhistidine and DsRed monomer fusion (pET32a); label: CyDye5-dUTP incorporated in the synthesized complementary strand; 3' TTTTT single-stranded linker to array surface; dsDNA, one strand shown. In outline:
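For the binding signal, per-feature fluorescence intensity was read in arbitrary units on an Axon 4000B scanner. Before scanning, a 2% BSA-blocked custom Agilent array made double-stranded with Cy5-dUTP was washed after 1 h at 25 °C with 200 nM protein and 50 µM zinc acetate. The proteins were Ni–NTA-purified transcription factors with N-terminal polyhistidine and DsRed fusions, expressed in E. coli BL21-CodonPlus.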
“ATAAAATTCTTTTATAATTAGTATTTTCATTGTTGTTAGACGGAGTCACCTAGTGCAG”: the binding signal was 5460 fluorescence intensity (a.u.).

For the sequence “ATCCAGATTATTCACTTGATTACAGAGATAAACTAAATATCGGAGTCACCTAGTGCAG”, the binding signal is 4610 fluorescence intensity (a.u.).

In the case of “TGAATTGACGCATGATAAATAAATACGCCGATCGATTGTACGGAGTCACCTAGTGCAG”, the binding signal is 5880 fluorescence intensity (a.u.).

For the sequence “TTGTATCGGAGTTGATTCTTGATTGGATTGAATTTTGTTCCGGAGTCACCTAGTGCAG”, the binding signal was 7580 fluorescence intensity (a.u.).

“GTAAATTACACAAATTTTGAGTGCTGTGTAACAAATTTTGCGGAGTCACCTAGTGCAG”: the binding signal was 28500 fluorescence intensity (a.u.).

Take “ATGATTTGTTGTTGAGTTCGGTTTGAAATCAATATAAGTACGGAGTCACCTAGTGCAG”: the binding signal was 14700 fluorescence intensity (a.u.).

On to “GAATTTCAATTATATGTAAATTTTATATGTATTTCTATATCGGAGTCACCTAGTGCAG”, for which the binding signal is 3710 fluorescence intensity (a.u.).

On to “CATAGTTAATGATTTCTTATATAGTTACTAAAATTTGGCACGGAGTCACCTAGTGCAG”, for which the binding signal was 7350 fluorescence intensity (a.u.).

Turning to “TTCATAATTAATAAATAACTTGCCATACCGCATCCTCCTTCGGAGTCACCTAGTGCAG”, the binding signal was 33600 fluorescence intensity (a.u.).

“CCAAAATTTTGGTAACTTTAATAGTAAACATGCTAGTTTGCGGAGTCACCTAGTGCAG”: the binding signal is 6870 fluorescence intensity (a.u.).

Regarding “CCCCAAATCCCACTCCAATCACCACCGCTTCTTCTCCTCCCGGAGTCACCTAGTGCAG”, the binding signal is 6580 fluorescence intensity (a.u.).

“AAGTGTCGTTACAGTGCTTGATTGGGCTATCAGGAGCGACCGGAGTCACCTAGTGCAG”: the binding signal is 18600 fluorescence intensity (a.u.).

Regarding “TAAGAGTGTAATTAATTAGCTGAGATTATTCATGAGCTGACGGAGTCACCTAGTGCAG”, the binding signal is 29900 fluorescence intensity (a.u.).

For the sequence “TTATCTAATTGTTGTCAGAAAGTTTAAAGGTAACATGTTCCGGAGTCACCTAGTGCAG”, the binding signal is 12000 fluorescence intensity (a.u.).

For “TAGTTAAATTTCCATTTAACTAGGGATAAATTAAATGGCTCGGAGTCACCTAGTGCAG”, the binding signal is 20200 fluorescence intensity (a.u.).

Regarding “ATTGATACTATAATTGCACATAAAGTTTTATTCAAGCAGTCGGAGTCACCTAGTGCAG”, the binding signal is 6130 fluorescence intensity (a.u.).

On to “TGCACGCTAATTTGCCTTGCTGCTGCTGCTACTAGGGCGGCGGAGTCACCTAGTGCAG”, for which the binding signal is 4920 fluorescence intensity (a.u.).

“CTAGACTGGCGTATAGCAATCCGAAGACGAAGAAAGAAGGCGGAGTCACCTAGTGCAG”: the binding signal was 3170 fluorescence intensity (a.u.).

Consider “ACTTTTCTACGGGAATTGACAACTGCTAGTAAAACCCATACGGAGTCACCTAGTGCAG”, for which the binding signal is 3570 fluorescence intensity (a.u.).

Turning to “CTGATTAACTCTTCAATCAAATCCCTAACTTGAGTGCATGCGGAGTCACCTAGTGCAG”, the binding signal was 57200 fluorescence intensity (a.u.).

Take “AGATAATTAGTGAGGGCTACTGTATGTTTTGTGATACTTGCGGAGTCACCTAGTGCAG”: the binding signal was 34200 fluorescence intensity (a.u.).

In the case of “GGGCTCAATCAATTTGAGAGAACAAAAGGAGGTGGGCCCACGGAGTCACCTAGTGCAG”, the binding signal was 14400 fluorescence intensity (a.u.).

Regarding “TGGATGGATTGAGATGGAGGCCGGCCGTGGCGCATGTGAGCGGAGTCACCTAGTGCAG”, the binding signal was 3950 fluorescence intensity (a.u.).

Consider “TTAATAATTATTGTAAAATTTAATTTATATTTATTTGAATCGGAGTCACCTAGTGCAG”, for which the binding signal is 22600 fluorescence intensity (a.u.).

On to “TCCATGTAATTTGTGAAGATGAGCTTTGTTCCCAACGACTCGGAGTCACCTAGTGCAG”, for which the binding signal was 9820 fluorescence intensity (a.u.).

For “AGTTCCCTCTAATTATAATTATAATGTCCTTGGTTTAGGACGGAGTCACCTAGTGCAG”, the binding signal was 16200 fluorescence intensity (a.u.).

As to “CCGCAAATTATGCAAACCACCTTTCTAAGCCAGTGGTTTTCGGAGTCACCTAGTGCAG”, the binding signal was 4120 fluorescence intensity (a.u.).

For “AAAATTGAAACTTTCAATGCTATATGTAACCAACTTTGTCCGGAGTCACCTAGTGCAG”, the binding signal was 11300 fluorescence intensity (a.u.).

Consider “CGCTTTAACATTTAAATTTAGCTTTAAAAGTTTATTATGGCGGAGTCACCTAGTGCAG”, for which the binding signal is 6480 fluorescence intensity (a.u.).

On to “CGATGATTTTGTCCGGTCTCCGCGTCCGGGCCCACCTGACCGGAGTCACCTAGTGCAG”, for which the binding signal was 6650 fluorescence intensity (a.u.).

Turning to “TTAACAAATTGGTTATCCTCTCCTCGCAGTTCGCTTAAAACGGAGTCACCTAGTGCAG”, the binding signal was 9140 fluorescence intensity (a.u.).

With “GGGAATTGAATGGTTCTTTGCACATATATATAAAGATGAACGGAGTCACCTAGTGCAG”, the binding signal is 13200 fluorescence intensity (a.u.).

Turning to “ATAATTAGTGATCTATATATGCATCTCACGTAGATGGTTCCGGAGTCACCTAGTGCAG”, the binding signal was 10100 fluorescence intensity (a.u.).

As for “ACCAACTAAATCGAAAATCACCGAATGGCTCGTCATCCTCCGGAGTCACCTAGTGCAG”, the binding signal was 3150 fluorescence intensity (a.u.).

As to “TTAAATTATACATTAATGATTTAGCTCGTCTTAGGTGCGGCGGAGTCACCTAGTGCAG”, the binding signal is 46900 fluorescence intensity (a.u.).

Consider “CGTTTCTTATAATATGGTAATTACCGTATTCTAAATATGTCGGAGTCACCTAGTGCAG”, for which the binding signal was 4030 fluorescence intensity (a.u.).

Turning to “AGGAAGATGATTGAATGTTGATTTGTAGAATTTAAAGAATCGGAGTCACCTAGTGCAG”, the binding signal is 45000 fluorescence intensity (a.u.).

Take “ATGTAAATTATCTTAGCTTGAAGGAGATGTATATTATGTACGGAGTCACCTAGTGCAG”: the binding signal is 15100 fluorescence intensity (a.u.).

On to “CTATAATTTAAACATGTAAAGTTTACGTGTATATAAATTTCGGAGTCACCTAGTGCAG”, for which the binding signal is 8480 fluorescence intensity (a.u.).

Consider “GAACAAATTTTGATAACAAGATAACCATTACGCTTTCGCGCGGAGTCACCTAGTGCAG”, for which the binding signal was 4980 fluorescence intensity (a.u.).

Regarding “TCATTGTAATTGGGCCTATCTTTGGTTGGGCCTGGAGCCCCGGAGTCACCTAGTGCAG”, the binding signal was 12700 fluorescence intensity (a.u.).

“TTGCCCATTAATTTACCCAAGTATCCATGCGGACCATGCCCGGAGTCACCTAGTGCAG”: the binding signal is 5180 fluorescence intensity (a.u.).
